# From paper PMC12040169 (PLOS Biology, 2025)
# The other results are listed elsewhere or left out.
# Tested on: T1, C. trachomatis L2/434/Bu expressing GFP (CTL2-GFP)
# T1 construct: L2/434/Bu GFP intracellular growth in HeLa cells
# Parameters: species or system HeLa; C. trachomatis total inclusion area by high-content imaging, normalised to DMSO
# Conditions: total inclusion area; 28.5 h, 10 µM; inhibitor
# In short: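 After bulk GFP and resorufin fluorescence reads, cells were fixed, stained with Hoechst and imaged by high-content microscopy. Inclusion area and number (GFP) stood in for chlamydial growth, nuclei count (Hoechst) for host cell viability. MICs were derived as for the bulk readout.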
row,SMILES,% of control remaining
1,CCCn1c(=S)[nH]c2cc(C(=O)NCCc3ccc(Cl)cc3)ccc2c1=O [CBK294445],101.799
2,CC(C(=O)Nc1ccc2oc(-c3ccccc3)nc2c1)(c1ccccc1)c1ccccc1 [CBK263928],102.104
3,N[C@H]1C[C@H](c2nnc(Cn3ncc(N4CCCC4)cc3=O)n2C2CC2)C1 [CBK307039],38.8906
4,CSC(=S)n1c(C)nc2ccccc21 [CBK018539],24.9627
5,O=[N+]([O-])c1cc(F)ccc1Oc1cccc2c1CCCC2 [CBK002559],77.9113
6,CN1CCN(c2nc(NCCNc3ccc([N+](=O)[O-])cc3)c3ccccc3n2)CC1 [CBK266949],57.1989
7,CCNC(=O)Nc1nc2cccnc2cc1-c1ccccc1 [CBK081239],76.677
8,CC(=O)c1nnn(-c2cc(Cl)ccc2Cl)c1C [CBK085973],46.2087
9,O=C(O)CCC(=O)Nc1ccc(NC(=O)c2ccccc2)c(Cl)c1 [CBK263478],74.6525
10,COC(=O)c1ccc(CN2CCC(Oc3nccnc3OCc3ccc(Cl)c(Cl)c3)CC2)o1 [CBK153782],96.0044
11,CCOC(=O)N1CCN(c2cccc3[nH]c(C(=O)O)cc23)CC1 [CBK083477],88.0398
12,CO/N=C(/C(=O)O)c1cn2cc(Br)ccc2n1 [CBK260925G],100.815
13,CN(C(=O)Cn1cc(C(=O)NCC(C)(C)c2ccc(F)cc2)ccc1=O)c1ccccc1 [CBK285662],98.8029
14,O=c1c(Cc2ccccc2)c(O)c2cccc3c2n1CCC3 [CBK291166],106.194
15,CCCCN=C(NCCCn1cccn1)N1CCCN(C(C)=O)CC1 [CBK304273I],38.1442
16,Cc1cc(C)nc(NS(=O)(=O)c2ccc(Nc3ccc4nonc4c3[N+](=O)[O-])cc2)n1 [CBK261444],30.3348
17,COc1cc(Nc2nc(-c3ccco3)cn3ccnc23)cc(OC)c1OC [CBK037413],153.958
18,CCC(=O)NCCCn1c(-c2cccnc2C)cc2cccnc21 [CBK282646],105.747
19,CSc1nnc(CCCNC(=O)c2cccc(C#N)c2)n1C1CCCC1 [CBK305459],64.5208
20,COc1ccc(NS(=O)(=O)c2ccc(NC(=O)c3nc4nc(C)cc(C(F)F)n4n3)cc2)cc1 [CBK266123],107.281
21,CCC(CO)Nc1cncc(-c2cccc(F)c2)n1 (stereo not shown) [CBK065752],78.9153
22,O=C(O)C1CCN(c2c(-c3ccccc3)c3cc(Cl)ccc3[nH]c2=O)CC1 [CBK287198],107.406
